In the BET-seq Pho4 binding data (Le et al. 2018):
The other results are listed elsewhere or left out. These are noisy estimates, calculated here from bound and input reads.

These sequences were tested against T1, Pho4 (S. cerevisiae) (UniProt P07270) (assay: relative binding free energy (BET-seq); higher = weaker binding). Conditions: reference: library average.
T1 sequence: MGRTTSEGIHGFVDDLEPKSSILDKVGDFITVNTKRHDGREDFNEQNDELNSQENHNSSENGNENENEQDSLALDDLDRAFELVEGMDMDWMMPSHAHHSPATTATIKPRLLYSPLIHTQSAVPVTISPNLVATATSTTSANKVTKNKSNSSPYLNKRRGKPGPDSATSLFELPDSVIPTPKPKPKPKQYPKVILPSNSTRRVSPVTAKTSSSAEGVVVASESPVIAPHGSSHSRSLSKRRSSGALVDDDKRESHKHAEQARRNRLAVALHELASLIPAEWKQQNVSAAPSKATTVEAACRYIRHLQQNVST
With CGGGGCACGTGAATTG the “relative binding free energy” value was 0.15 kcal/mol. For GATCGCACGTGGGGAT, the “relative binding free energy” value was -0.12 kcal/mol. For CGTGACACGTGCGGGT, the “relative binding free energy” value was -0.12 kcal/mol. AAGTTCACGTGGATGC was tested, and the “relative binding free energy” value was 0.25 kcal/mol. For GGGTCCACGTGTTGTT, the “relative binding free energy” value was 0.08 kcal/mol. TGATGCACGTGGTTAA was tested, and the “relative binding free energy” value was -0.19 kcal/mol. ATGGGCACGTGGGTAT was tested, and the “relative binding free energy” value was -0.2 kcal/mol. For GAGATCACGTGTTGTG, the “relative binding free energy” value was 0.08 kcal/mol. With TAGGACACGTGTTGAT the “relative binding free energy” value was 0.06 kcal/mol. In the case of GTTGGCACGTGGGTAT, the “relative binding free energy” value was -0.1 kcal/mol. With GTCTACACGTGGTCTT the “relative binding free energy” value was 0.18 kcal/mol. In the case of GTTGCCACGTGAAGGT, the “relative binding free energy” value was 0.17 kcal/mol. For AGTATCACGTGCATGG, the “relative binding free energy” value was 0.1 kcal/mol. In the case of TTAAGCACGTGACTGG, the “relative binding free energy” value was 0.05 kcal/mol. In the case of TTCTGCACGTGGGGTG, the “relative binding free energy” value was -0.17 kcal/mol. In the case of GTTGACACGTGTGGGA, the “relative binding free energy” value was 0.15 kcal/mol. TAGCTCACGTGAGTGA was tested, and the “relative binding free energy” value was 0.46 kcal/mol. For GTCTTCACGTGAGGAG, the “relative binding free energy” value was 0.39 kcal/mol. For ATGTTCACGTGATGGA, the “relative binding free energy” value was 0.27 kcal/mol. For ATTCGCACGTGGAGTT, the “relative binding free energy” value was 0.07 kcal/mol. CATGTCACGTGTGTGG was tested, and the “relative binding free energy” value was 0.05 kcal/mol. TTAGTCACGTGTGCCG was tested, and the “relative binding free energy” value was 0.04 kcal/mol. With TGTGCCACGTGATGTG the “relative binding free energy” value was -0.01 kcal/mol. For AGGTACACGTGTGGAG, the “relative binding free energy” value was 0.08 kcal/mol. In the case of GAGCTCACGTGTGGTG, the “relative binding free energy” value was 0.27 kcal/mol. With GATGTCACGTGGGGAC the “relative binding free energy” value was 0.01 kcal/mol. TAGTGCACGTGTCCAG was tested, and the “relative binding free energy” value was 0.11 kcal/mol. With GTTCTCACGTGGTGCT the “relative binding free energy” value was 0.27 kcal/mol. TAAAGCACGTGTGAGG was tested, and the “relative binding free energy” value was 0.05 kcal/mol. For AGATGCACGTGGGAGA, the “relative binding free energy” value was -0.08 kcal/mol. With TTATACACGTGATATT the “relative binding free energy” value was 0.21 kcal/mol. In the case of TGCAGCACGTGGTGGA, the “relative binding free energy” value was -0.21 kcal/mol. In the case of TTGGGCACGTGCAGTA, the “relative binding free energy” value was -0.08 kcal/mol. TATTGCACGTGGACTT was tested, and the “relative binding free energy” value was -0.13 kcal/mol. With AATGGCACGTGCGGAT the “relative binding free energy” value was -0.17 kcal/mol. In the case of AATTTCACGTGAGGAA, the “relative binding free energy” value was 0.35 kcal/mol. ATATCCACGTGTTTTG was tested, and the “relative binding free energy” value was -0.07 kcal/mol. With GGCTGCACGTGAAGGT the “relative binding free energy” value was 0.19 kcal/mol. For TTGAACACGTGAGTTT, the “relative binding free energy” value was 0.2 kcal/mol. With CATTACACGTGTTGGG the “relative binding free energy” value was 0.08 kcal/mol. For TGATACACGTGGGTGA, the “relative binding free energy” value was 0 kcal/mol. For TTAGGCACGTGCGTCT, the “relative binding free energy” value was -0.16 kcal/mol. In the case of TGTAACACGTGTGTTA, the “relative binding free energy” value was 0 kcal/mol. TGTAGCACGTGTTCGT was tested, and the “relative binding free energy” value was 0.1 kcal/mol. With TAAGACACGTGTGTAA the “relative binding free energy” value was 0.03 kcal/mol. For TTGAACACGTGTACGG, the “relative binding free energy” value was 0.02 kcal/mol. With GAAAGCACGTGGTTGT the “relative binding free energy” value was -0.16 kcal/mol. For TGGGACACGTGTCATT, the “relative binding free energy” value was 0.01 kcal/mol. In the case of GTATACACGTGCTGTG, the “relative binding free energy” value was 0.01 kcal/mol. For TGATTCACGTGGAAGA, the “relative binding free energy” value was 0.24 kcal/mol. GTGGACACGTGCGGTT was tested, and the “relative binding free energy” value was 0.1 kcal/mol. In the case of GATAGCACGTGAAGGG, the “relative binding free energy” value was 0.11 kcal/mol. For GGAGTCACGTGTTGCT, the “relative binding free energy” value was 0.17 kcal/mol. For GTTCACACGTGATTTG, the “relative binding free energy” value was 0.24 kcal/mol. With CGCGGCACGTGTGGTC the “relative binding free energy” value was 0.13 kcal/mol. In the case of AAGGGCACGTGCCTGG, the “relative binding free energy” value was -0.21 kcal/mol. In the case of GGCTTCACGTGGGCTT, the “relative binding free energy” value was 0.22 kcal/mol. TTGATCACGTGGTTTC was tested, and the “relative binding free energy” value was 0.17 kcal/mol. In the case of TAGCGCACGTGGAGGG, the “relative binding free energy” value was -0.16 kcal/mol. In the case of TCAAGCACGTGGGCGG, the “relative binding free energy” value was -0.14 kcal/mol. GTAGTCACGTGGTTGC was tested, and the “relative binding free energy” value was 0.18 kcal/mol. For GTAGACACGTGGAATG, the “relative binding free energy” value was 0.15 kcal/mol. In the case of TGCTTCACGTGTAGTT, the “relative binding free energy” value was 0.32 kcal/mol. ATAAGCACGTGTGGGC was tested, and the “relative binding free energy” value was 0.05 kcal/mol. GATGGCACGTGGGCAA was tested, and the “relative binding free energy” value was -0.14 kcal/mol. For AGATTCACGTGTGCGG, the “relative binding free energy” value was 0.14 kcal/mol. GTTAACACGTGGTTTC was tested, and the “relative binding free energy” value was 0.01 kcal/mol. With ATATACACGTGTATGT the “relative binding free energy” value was -0.07 kcal/mol. In the case of TAAGTCACGTGTGCTA, the “relative binding free energy” value was 0.1 kcal/mol. For TATAACACGTGGCTTG, the “relative binding free energy” value was -0.08 kcal/mol. With AATTTCACGTGTTAGT the “relative binding free energy” value was 0.29 kcal/mol. With CGTGGCACGTGTAGTA the “relative binding free energy” value was 0.05 kcal/mol. In the case of TATCTCACGTGATTGG, the “relative binding free energy” value was 0.28 kcal/mol.
